Test results published in the supplement of paper PMC3334620.
Whole data set: some 33,000 sequences, median “E-score (-0.5 to 0.5)” near -0.035, cut for the highest 2% near 0.34. The list shows a part of the results.

The sequences below were run against T1, Mot3 (UniProt P54785) (assay: PBM E-score (8-mer binding enrichment) (E-score (-0.5 to 0.5)); higher = stronger / more preferred TF binding; most listed sequences are background and not binding sites). Details: protein concentration: 200 nM; construct: GST-full length.
T1 sequence: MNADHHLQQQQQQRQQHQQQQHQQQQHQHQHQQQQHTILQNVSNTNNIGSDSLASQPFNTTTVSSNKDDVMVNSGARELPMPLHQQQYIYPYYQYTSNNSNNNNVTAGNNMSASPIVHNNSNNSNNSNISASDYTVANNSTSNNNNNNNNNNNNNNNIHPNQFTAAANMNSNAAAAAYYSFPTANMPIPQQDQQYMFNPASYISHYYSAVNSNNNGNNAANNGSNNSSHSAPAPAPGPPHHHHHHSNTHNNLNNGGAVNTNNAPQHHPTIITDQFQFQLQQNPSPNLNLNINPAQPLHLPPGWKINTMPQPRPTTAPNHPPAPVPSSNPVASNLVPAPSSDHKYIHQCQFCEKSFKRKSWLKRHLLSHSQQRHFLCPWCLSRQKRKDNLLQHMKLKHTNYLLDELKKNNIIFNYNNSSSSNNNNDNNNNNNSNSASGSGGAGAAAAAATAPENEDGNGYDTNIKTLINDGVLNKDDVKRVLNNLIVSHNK
In short: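 Universal all-10-mer Agilent arrays, double-stranded by primer extension on fresh or once-stripped slides, were probed with about 100-200 nM GST-tagged yeast transcription factors made by PURExpress. Fluorescent anti-GST detected bound protein, and masliner normalised the scans. E-scores from the Universal PBM Analysis Suite were given to each ungapped eight-base word pooled with its reverse complement.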

Sequence	PBM E-score
CGAAGGAG	-0.225
ACGAGTCG	-0.132
CGTAACAA	0.152
ATAAACTA	0.0943
TTGACCAA	0.0363
ACATGGCC	0.315
ACAACCTA	0.142
ACAACCGT	0.157
ACTCGAAA	0.0722
ACGTCCGC	-0.162
TACATCTA	0.227
GAGAGACC	-0.23
ACTACGGC	-0.303
CGACGTTA	0.0666
ACTTGACA	0.179
CTCTTTAC	0.177
CAAGCGGC	-0.142
GACGCGGC	-0.0795
CCCGGTCA	-0.32
GCACATGA	0.0863
AGAAAACC	-0.119
GGAATACC	-0.0121
GCTATTAA	0.128
GTTGTCAA	0.157
ATATTGAC	0.0434

Sequence	PBM E-score
AAGCCCCT	-0.195
ACCATTAG	-0.122
GTAATACA	0.329
TCACTTAA	0.0594
GTTCTGGA	0.0443
ACCACCCA	-0.0591
ATGCTCCG	-0.181
AGACTTAC	0.0486
AATTTGGT	0.1
AAGAGTGC	0.0716
ACAAGTAT	0.0968
TCCCGAAA	-0.00587
AGTGGTAT	-0.0695
AATCGCCA	-0.145
TCAAGGAA	0.363
AATGTTTC	-0.00335
ACACAACA	0.307
ACAGGTAA	0.39
AATGGATG	0.0536
TACGAGTA	0.0892
GAGGCTGA	-0.187
ATATCTCA	0.00383
GGCGAGTA	-0.0065
GCCTAAGA	0.138
GAGTCCGA	-0.0983

Sequence	PBM E-score
GTGACTAA	0.0882
ACCCACGA	-0.123
ATCCTTAA	0.00499
GGAGTCTA	-0.273
TCTCCTCA	-0.15
AAGTAAGC	0.082
CCGAGGTC	-0.308
ATCACCCG	-0.262
CGATTGGC	-0.206
GATATAAC	0.0808
GTGGGGGA	-0.17
CTTCCCAA	-0.0311
ATTATTTG	0.172
ACCTTTCG	-0.117
CTCCAGCC	-0.268
CTCGTCCC	-0.222
AGCTTACA	0.162
CTCGTAGA	-0.166
CGATTCCG	-0.278
GAAGTGGA	-0.0275
AAACCAGC	-0.141
GGGAGGAA	-0.11
TAGCGGCA	-0.168
ACTGTGAT	-0.0738
CTCTATAA	0.0464

Sequence	PBM E-score
ATAAGCAC	0.0519
TACTGACA	0.117
CATATAGG	0.0848
ACCGGCGA	-0.293
CTGGGTGC	-0.113
ACATCATC	0.0456
GGCCAATA	-0.0675
AAACTATC	-0.0399
GAAGATGA	-0.127
ACCGTACA	0.0453
AACGACGA	-0.024
GAGAGCTA	0.0726
CTGACTAC	0.0479
ACTAAACG	0.083
GTACGCCA	-0.213
CGGTCTTC	-0.225
GTGATCGA	0.11
TCCGGCGA	-0.153
GACCTCCA	-0.149
CCGGACAA	0.022
AACGCGGC	0.0553
GGAGTATA	-0.0923
ATTGGCCA	-0.218
TGGTGCAA	-0.049
GTCCCTTA	-0.0953

Sequence	PBM E-score
CCCATGAG	-0.314
ATGAATGA	-0.0809
GGAAAGCC	-0.0378
CCTAAATA	0.149
AGCACCTC	-0.0429
ACCCCAAA	-0.215
GGGGCCCA	-0.348
CAAATCAG	-0.048
TACGACGA	-0.0839
GGCTCATA	-0.154
CTGATAGC	-0.288
CATTCCGA	0.0255
AAACAAAC	0.0919
AAGATCTG	0.027
CTCCCAAA	-0.097
AAAATGGT	0.123
CGCATCAA	-0.122
ATATTTCA	0.0496
AACAAGGG	0.183
ATTGACCC	-0.117
ACGGCGCT	-0.105
ACTTAAGG	0.157
ATAGGTGG	0.0389
ACTCAACG	0.0348
CCTGCAGC	0.0434

Sequence	PBM E-score
CCGTTACA	0.236
GCCGCATA	-0.215
TATCCATA	-0.00087
ACTTTTGG	-0.00521
AAACCGTG	0.0679
TGCCAACA	0.137
TATCGGGA	0.0521
AAATAGAT	0.115
AGTTAGTG	-0.00141
CACGTCCC	-0.0972
AGGTTGAA	-0.0784
AAGAGCTG	-0.2
AAATACCG	-0.0476
ATGTCCTA	-0.0455
ACATCCCT	0.148
TGTAGGAA	0.406
CCTGTTTC	0.188
CCGAAATA	-0.0276
ATTGAAAG	-0.023
AGCAGTCA	0.0249
AGGCCCAA	0.0324
TTATAGAA	0.153
CGCCACAG	-0.0196
GCGAAACA	-0.0302
ACCATTGC	-0.0229

Sequence	PBM E-score
CGAGTTAC	0.123
GCCGGTCA	-0.221
GGTGTTAA	0.28
ATCATGCA	0.0669
AGAGGTTC	0.0145
CTCAATTC	-0.0836
CTCACGAG	-0.266
ACGATCGT	0.179
AGAACCAC	-0.122
GTGTGTAA	0.394
AAGGCCAT	-0.0727
CTGCGCAC	-0.104
CCTCTTGA	-0.0841
GGCCTGTA	0.148
GTGGGGAA	0.0416
ACTACATC	0.173
CTCGTCAC	-0.00506
TATCAAAA	0.0905
GATCACAA	-0.122
ATATACAA	0.264
GCCCGAGA	-0.131
CCAAGCAC	-0.0442
GAAACGGC	-0.0229
CAACTTTA	0.212
CCGAATAC	0.0773

Sequence	PBM E-score
AAATAATG	0.176
GGACGAAC	0.0273
ATATGGTA	0.0654
AACGTAGT	0.101
CACATTGA	0.0498
GTAAGATA	0.0659
ACCCTGGC	-0.174
CGTTGTAA	0.333
GCTAAGCA	-0.148
AAAGGTTA	0.132
ACCGCCGC	0.107
ATTAGCAA	0.1
GGTGATAC	-0.11
AAAAGCAG	-0.102
ACCGCGTC	0.0492
TATCGTAA	0.171
CAGCTTGG	-0.214
ACGGGTAA	0.0622
GCGAAACC	-0.00806
CACCGCAC	-0.225
GCATGGCA	-0.113
CCGAGAGC	-0.17
AAAGGAAC	0.456
TCTATAGA	-0.152
GCGCCCAA	-0.167

Sequence	PBM E-score
CTAACCTC	-0.0869
AGGCCCAT	-0.219
GAGGCCCC	-0.242
CCCAAGCC	-0.261
CAGCCACA	-0.11
AATCGATT	0.265
CTGGCACC	-0.232
CTGCGTAC	0.155
CATGAACG	0.00316
AGTCTCAC	-0.162
GGGGGCGA	-0.315
CACAGCAG	-0.0438
ACGGGAGC	-0.091
ACACGTGC	0.326
ATAAGGAC	-0.06
CAACGGTA	-0.136
AATACGTA	0.239
ATTATCAC	0.147
TATCTTAA	0.153
TAGGTCCA	-0.0377
CCAGATGA	-0.0722
CCTCGGTC	-0.129
CATTAGAG	-0.263
CTTAGAAC	0.164
AGACTCAA	-0.162

Sequence	PBM E-score
CTAAAACA	0.283
AATGAATG	0.114
TACACTCA	0.21
GGGGCGGA	-0.374
ATGTCGAA	0.298
CATCCGGA	-0.257
ACCCACCA	-0.0196
ATTCCCGA	-0.113
ACGTTTAC	0.214
CATACACA	0.219
AATTAAAA	0.172
CGAATGGA	0.00359
TGTTTTAA	0.257
CGATATGC	-0.142
CATTACAC	0.384
GGTTCTAA	-0.0493
CAGTTTGG	-0.122
GCGTGAGC	-0.0991
GTCCACCA	-0.141
CCTCTTTC	-0.324
GCTCGTGA	-0.265
ACCACGAT	0.127
CTCTAGTA	0.0832
AATTCTTC	-0.0362
AGTAGTCC	-0.106

Sequence	PBM E-score
CATTCTGG	-0.0991
CTGAAGGA	-0.0822
AAGTGGCG	-0.0307
CTCTAACA	0.0488
CGTGGTAA	0.155
ATGTTTCG	0.0343
ATTTGTGC	0.191
CCACCTGG	-0.0941
CCCTTGAA	-0.223
ATCCACCG	-0.206
ACCGCTAT	-0.159
TAAGGAGA	-0.0944
GCCGGGCA	-0.206
AGAGATAG	-0.0788
ATACTTGA	0.145
GCCAGCGC	-0.236
AACCCCTA	-0.042
TCTAAGAA	0.00589
ACAATTAC	0.296
AGACCGCG	0.113
ACTCGTAG	0.039
CAGACTGC	-0.158
GTGAATGA	-0.0845
AAGGTACG	0.436
ACTTTGGG	-0.119

Sequence	PBM E-score
GCAATGCA	-0.0836
AGAGCCTG	0.341
AGTCAGAC	-0.176
GAAAATGC	0.0221
CCTATCAG	0.0767
AGCCGATC	-0.0373
CAGATACC	-0.188
ATCAACGG	-0.0358
ACTGGTTG	-0.125
GTCCTTGA	0.0337
AAAAGCGA	-0.0616
CATCGTGC	0.0815
CCTATGCG	0.104
AACCGTCG	-0.0662
ATCCCGCA	0.00244
GCATCTTA	-0.0612
AACCCCCC	-0.356
ATGCCCCC	-0.266
CGCAGAGC	-0.218
CTAACTGC	-0.181
AGCCCCCC	-0.399
ACGGCAAA	0.0341
CAATATCG	-0.0904
ACCCTTTA	0.167
CGGAGCCA	-0.223

Sequence	PBM E-score
CCATTACA	0.337
GAGGGCAC	0.00821
ATTATAAG	-0.0293
GCTTAGGA	-0.141
ACATACAG	0.265
CATCAAGG	0.127
GTACTAAC	0.197
CCAATTAC	0.276
AATGGTAG	0.117
GACCACAA	-0.245
GTCGCTGA	-0.0942
CCGAAAAC	-0.0182
AAGACTGA	-0.0243
GAGACTAC	-0.216
ACCTACAG	0.0747
CTCCGTGA	-0.132
GAATAAGA	-0.151
CTGGCCGC	-0.246
CTCAGTAA	-0.0379
CCTGAGTA	0.199
AATTAAGC	0.103
CTTGGTGA	-0.105
AAATGCTG	0.107
AGCGATGG	-0.23
TCATTGAA	-0.0956

Sequence	PBM E-score
GAGCGGGA	-0.177
CTGGAATC	-0.0268
CATTTCGA	0.0462
CACAGGCC	0.0987
GGGCACAC	0.178
TAGAATAA	0.152
CATAGCCC	-0.0765
ATAAACTG	-0.0611
CTTTAACC	0.077
AACTATGC	-0.0251
ACGTTGAG	0.00685
AAGCCAAA	0.00529
CCGGAAGG	0.0191
CATCTGGC	-0.139
AAATTATA	0.0781
GCGCGAGC	-0.381
CCACCGAG	-0.276
CTTGAAAG	0.0362
CTATAGGC	0.272
